# Assay results reported in the supplement of paper PMC4466236.
# In all, about 33,000 sequences were measured (“E-score (dimensionless, -0.5 to 0.5)”: median about -0.058, highest 2% from about 0.35 on). This is one part of the list.
# Tested on: MvaT
# Assay: PBM 8-mer E-score (mean of HK and ME arrays) (E-score (dimensionless, -0.5 to 0.5)); higher = stronger relative binding preference; most listed sequences are background and not binding sites
# How it was run: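 Full-length P. aeruginosa MvaT carrying an N-terminal glutathione S-transferase tag was tested by protein binding microarray following a previously described protocol. Two universal double-stranded 60-mer arrays, ME and HK, were used, each with a constant 25-mer primer region and a variable 35-mer region covering all 8-mers. The rank-based E-score is the mean of the two arrays, parsed with a custom script. Its range runs from -0.5 to 0.5 for each 8-mer.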
row,Sequence,PBM 8-mer E-score
1,AATGTCTA,0.0927
2,TTGCAAAA,0.182
3,GGAGATCC,-0.228
4,CAAGCAAG,-0.132
5,AATGTTAA,0.387
6,AGACCGCA,-0.125
7,ACTGCGAT,-0.00892
8,CACCGACC,-0.165
9,CCTAGGCG,-0.243
10,TTACTAAA,0.312
11,GTATTCCA,0.0824
12,CGAAGTGC,-0.158
13,CGTGCAGC,-0.137
14,ATAATGGA,0.238
15,ACACAACC,0.129
16,GTCAGAAA,0.0816
17,CATGATTC,-0.0134
18,GGCAAGTA,0.0346
19,AATAAAAC,0.341
20,ATACTATG,0.174
21,ACATGCTG,0.0183
22,GGGGGCCA,-0.312
23,ATTACTAA,0.29
24,ACCCATTC,-0.0842
25,CTACACAC,-0.042

row,Sequence,PBM 8-mer E-score
1,AATAAGCG,0.157
2,CCCGTAGC,-0.212
3,AATTCACA,0.206
4,CAACGTTA,0.205
5,GACGGGGC,-0.19
6,GTATTGGA,0.112
7,GATTGAGA,-0.0343
8,AAGGTTGG,-0.0789
9,CTTAGTCA,-0.012
10,AAGCTACG,-0.0717
11,CCACTCCG,-0.297
12,GATAGTCC,-0.122
13,AACGATAC,-0.0307
14,GCATCGCA,-0.0544
15,AATTAGAT,0.284
16,GCCGAAAC,-0.176
17,CCACGTAA,-0.141
18,GCAATGCC,-0.14
19,CCTAAGAA,-0.00127
20,GTCCCCCA,-0.286
21,ACCGGATC,-0.183
22,ATATTCAA,0.316
23,GGACAAGA,-0.0939
24,ATTTTACG,0.218
25,CGAATGAG,-0.0483

row,Sequence,PBM 8-mer E-score
1,AGACGAGA,0.0123
2,ATAGATCC,0.0263
3,ACTGACAT,-0.0302
4,CCTCTAAC,-0.0962
5,GGCTAAAA,0.0463
6,ACGATCCA,-0.112
7,TAATAACA,0.379
8,GCCATGTA,0.0494
9,AACTTTAT,0.357
10,CAGTAATC,-0.0621
11,AGACAAAG,-0.00692
12,CGCTTACA,0.0083
13,GCCCATAA,0.166
14,CTAACCTA,-0.00243
15,GAATCGAC,-0.122
16,GAGACTGA,-0.127
17,AATTACCA,0.273
18,AAGCTTCC,-0.0554
19,GGGCAGGA,-0.333
20,ATTATGTC,0.305
21,GCTCACCA,-0.236
22,TGTAGCAA,0.2
23,CTGTAGCC,-0.199
24,ACCCTGCA,-0.116
25,CAACATGG,-0.0392

row,Sequence,PBM 8-mer E-score
1,ATGGCACG,0.0112
2,AACGATTA,0.154
3,ATCGGCGA,-0.195
4,ATACGTAT,0.217
5,ATAGATTC,0.169
6,GCTCCCCA,-0.272
7,CTTGGGCA,-0.176
8,AAAAGTGT,0.17
9,GGGACGTA,-0.102
10,GCGTAGCA,-0.179
11,TAACCCTA,-0.0932
12,ACCGCCGT,-0.106
13,CATGCATG,-0.103
14,AGTGGCCA,-0.169
15,AACTCATT,0.11
16,TAGTTTAA,0.398
17,GACCGGGC,-0.319
18,CGAGACTC,-0.0802
19,GAGGTCGC,-0.197
20,CTAAGTAG,0.0522
21,AGTACCGG,-0.0846
22,AGAATACC,-0.106
23,CTAGAGGA,-0.093
24,GTAGTCAC,-0.034
25,AGAGCTAG,-0.115

row,Sequence,PBM 8-mer E-score
1,GCCTGCAA,-0.153
2,AGTGTAGC,-0.0909
3,ACTTCGAT,0.141
4,CGCTACTC,-0.204
5,AAGGGGTG,-0.237
6,AAAGAATC,0.124
7,GATCTGCC,-0.187
8,ATACGATC,0.0457
9,CCGTTCCC,-0.148
10,ACAGCAAT,0.0951
11,GAGCAGCA,-0.148
12,AGCATGGG,-0.0178
13,GAATGAGA,-0.156
14,TTGCGAAA,0.126
15,AAGTTTCC,0.173
16,AAGCAAGC,-0.177
17,AGTGAGCG,-0.153
18,GTAAATAC,0.228
19,GGAGTGCA,-0.125
20,AATGTGCA,0.0599
21,GAAAAGTA,0.203
22,GCGATGAA,0.00423
23,CTTCAAAC,0.147
24,AGCTAGTA,0.152
25,AACACGGT,-0.238

row,Sequence,PBM 8-mer E-score
1,GAGGAGGC,-0.355
2,CTGAAACA,-0.0424
3,ATGGTAGA,0.071
4,AGTATTTA,0.33
5,AGCTAGCT,-0.268
6,CTAACGGA,-0.0407
7,GGAACATA,0.00642
8,CTTTCTTC,0.132
9,CGATGTAG,-0.119
10,AACAAATT,0.228
11,AGGATACG,-0.0147
12,AGAAATAC,0.157
13,CCTCGCGA,-0.2
14,AGGCGGTC,-0.288
15,CGATGAAC,-0.281
16,ACAAGTGG,-0.00133
17,ATCCGTAC,0.067
18,ACATGCAA,0.136
19,GACAATCA,-0.0576
20,CTTAAACC,0.214
21,GGACCACC,-0.282
22,GGCCCACA,-0.145
23,CACGTGGC,-0.0383
24,CCTGTTTA,0.0399
25,CGAGTAAG,-0.0397

row,Sequence,PBM 8-mer E-score
1,CTGTTCTA,0.0426
2,ACGCATAG,-0.152
3,CTCGGAAC,-0.0872
4,ATCGTGTA,0.124
5,TGTAGACA,-0.0847
6,CATGATAA,0.217
7,CGGCTCAG,-0.327
8,CAGTCGCA,-0.0418
9,ACGCATCT,-0.113
10,GCATGTCC,-0.142
11,ACCGAATC,-0.0498
12,CTGCCACC,-0.166
13,ACAAGCGC,-0.107
14,ATTAGACA,0.162
15,ACGGAGAT,0.0295
16,AGCCGATG,-0.193
17,AAATTAAC,0.27
18,AGGTACTG,-0.174
19,GGGACCAC,-0.237
20,TTTCGAAA,0.256
21,ATATTGAT,0.32
22,AATCCCAA,0.136
23,ATCAAACA,0.113
24,CCTCGTTC,-0.185
25,TATTACGA,0.343

row,Sequence,PBM 8-mer E-score
1,ACTGGCAT,0.041
2,CAATTATG,0.329
3,ACGCATAT,0.154
4,CACACCTA,0.0249
5,CGGGGCCA,-0.2
6,GATTAATC,0.317
7,CTATTGAG,-0.189
8,AGCGTTCC,-0.129
9,CATCCTCG,-0.327
10,ATATGCAA,0.271
11,ATATTATG,0.411
12,GTCGCTAA,-0.0359
13,ACTTAATG,0.287
14,CTGGTCCC,-0.274
15,CCAACGAG,-0.17
16,AACTATTA,0.399
17,AAGTGGTA,0.0484
18,ATTTTTGA,0.233
19,ACCGAGGG,-0.223
20,AGGGCTCG,-0.319
21,CCTCACCA,0.0682
22,AAGAAATG,-0.0324
23,AGCGCGGC,-0.159
24,CGGGTAAA,0.104
25,CCCGGGTC,-0.349

row,Sequence,PBM 8-mer E-score
1,CGATTAAA,0.218
2,GATCTGAC,-0.0641
3,ATTTGGTA,0.144
4,CTACTCTA,-0.0151
5,AAGACTAT,0.138
6,AAGATTCA,0.116
7,GACACAGA,-0.0831
8,CAGCCTAA,-0.154
9,AAGGGACT,-0.176
10,CAACACGG,-0.147
11,CTTCGCGC,-0.124
12,CTCCTCGA,-0.177
13,ACGGACAC,-0.107
14,CCGCTCAG,-0.246
15,CCATCGAG,-0.252
16,CCAACTAC,0.0254
17,AGCCATAT,0.114
18,ATCGTGCA,0.0478
19,ATCGAGAC,-0.108
20,CCAAGGAG,-0.212
21,CGTGTGAA,-0.0347
22,GCGATCTA,-0.117
23,CAGGTTCA,-0.0132
24,CTGGACTA,-0.0316
25,GATCCAGA,-0.116

row,Sequence,PBM 8-mer E-score
1,CAGCGATA,0.0749
2,AGATAATC,0.136
3,ACGTACTC,-0.0465
4,CCCTATAA,0.184
5,TCCATAAA,0.0562
6,CGATCCTC,-0.182
7,CTCTGGTC,-0.191
8,AAGGCAGA,-0.266
9,GTCTCCAC,-0.12
10,AATGGTTA,0.177
11,CCACGCCG,-0.142
12,CTGTGGTA,-0.0119
13,AACCTTAC,-0.0526
14,GCCAGAAA,-0.0692
15,TACAACAA,0.323
16,CGCTGAGA,-0.304
17,TGCGTACA,-0.123
18,ACTGTCCG,-0.0845
19,ATATAACA,0.423
20,CTATGAAA,0.137
21,ACACTTCT,0.142
22,AGGGCGGC,-0.378
23,ATTGATAG,0.229
24,CCATATAC,0.153
25,CAGCAGTC,-0.255

row,Sequence,PBM 8-mer E-score
1,GACACCTA,-0.0802
2,GTCTGTTA,0.123
3,AATCTACC,0.0249
4,GTTCATAA,0.0825
5,CTTAAGCC,-0.211
6,ACTTCACA,0.112
7,CCCAACGC,-0.122
8,CAACATAC,0.218
9,GAGTGCGA,-0.101
10,ACGGCCCG,-0.272
11,AATTGTAC,0.273
12,ACAAGAAT,0.191
13,CAGAGCAG,-0.224
14,AGTATACA,0.321
15,ACTGTTTG,0.147
16,GACTTAAA,0.185
17,ACTCTCTC,-0.0923
18,ATGCGTTG,0.00246
19,GGTTTAAC,0.094
20,GCATCCAC,-0.319
21,CTGGGAAC,-0.213
22,ACTTTGGA,0.108
23,ATGTTAGG,0.147
24,AGAAGTCT,0.167
25,GAGATTCC,-0.0701

row,Sequence,PBM 8-mer E-score
1,AATCTTCC,0.0814
2,ACACAAGA,-0.0159
3,CACAAACA,0.188
4,CTACATTA,0.241
5,AGAACACC,-0.1
6,CCATTAGA,-0.0603
7,ATCTAATG,0.137
8,GAGTCCCA,-0.24
9,ATTACGAC,0.262
10,CCCGTTCC,-0.249
11,AAACTTAA,0.326
12,AGTTAGGG,0.0688
13,ATAACAGA,0.176
14,ACCGACTG,-0.111
15,AACAAAAC,0.117
16,TACCGGCA,-0.0101
17,AGGGTTGA,-0.0631
18,AAATCCTT,0.0321
19,CACCGGTC,-0.189
20,CAGTAGGA,-0.0744
21,AGCGCTAG,-0.176
22,CTACCTCA,-0.0976
23,CATGTCCG,-0.145
24,ACGCAAGG,-0.174
25,AGACCGGG,-0.322

row,Sequence,PBM 8-mer E-score
1,CCCGGGCA,-0.223
2,CTCGAATC,-0.0425
3,CACACGCG,-0.284
4,CCGGACGA,-0.219
5,CCTTCAGA,-0.319
6,CATACCCA,0.0734
7,AGGGGACG,-0.285
8,AAGCCCTT,-0.246
9,CTGGTTCA,-0.165
10,CATTTATA,0.347
11,CGACACTA,0.107
12,AGAACAAC,0.163
13,GCCGTGGA,-0.211
14,AATTGAAG,0.251
15,AGAAGCGC,-0.13
16,ACTAGGAG,-0.117
17,TAGAAAGA,0.156
18,AATAGGAG,-0.0427
19,GACGCAGC,-0.356
20,AAGTGTAG,0.159
21,CGGTCCGA,-0.24
22,ACTCTTAC,0.13
23,CCGGTCGC,-0.295
24,GCCCAGAC,-0.235
25,CCTGAAAA,-0.0433

row,Sequence,PBM 8-mer E-score
1,ATAGTGAT,0.156
2,GTGTACGA,-0.0582
3,ACAAGCAC,-0.161
4,AAAAAGTG,0.00186
5,AGATTTGA,0.0316
6,GCGCCCTA,-0.132
7,ATCTTTCA,0.181
8,AGTCTTGC,0.0819
9,GGGGTTCA,-0.233
10,AGTCCAAC,-0.0362
11,AATAAGTA,0.387
12,TGAAACCA,-0.0199
13,CGCCATGA,-0.243
14,TACTGTAA,0.336
15,ATTGTCTC,0.101
16,ACGACTGA,-0.0289
17,AGTAGGCG,-0.118
18,CTATAGTA,0.223
19,CAACTCGA,0.0468
